From the supplement of paper PMC8728848
The list shows a part of the results.

How the values were obtained:
Test in all cases: glycan array binding signal (z-score within array); higher = stronger binding
Conditions in all cases: glycan notation: IUPAC condensed, linker removed
[1] = molecular target: Gal(a1-3)Gal(b1-4)GlcNAc
In short: (§1)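 Negative Z-scores can be read as non-binding. The Z-score is calculated within each array and then averaged across arrays of one protein sequence at different concentrations or buffers and across linkers. Arrays, 3228 in all, were curated from the Consortium for Functional Glycomics database and kept only where the protein sequence was available.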

[2] = molecular target: Gal(a1-3)Gal(b1-4)GlcNAc(b1-2)Man
In short: as §1

[3] = molecular target: Gal(a1-3)Gal(b1-4)GlcNAc(b1-2)Man(a1-3)[Gal(a1-3)Gal(b1-4)GlcNAc(b1-2)Man(a1-6)]Man(b1-4)GlcNAc(b1-4)GlcNAc
In short: as §1

[4] = molecular target: Gal(a1-3)Gal(b1-4)GlcNAc(b1-3)GalNAc
In short: as §1

[5] = molecular target: Gal(a1-3)Gal(b1-4)GlcNAc(b1-6)GalNAc
In short: as §1

[6] = molecular target: Gal(a1-3)Gal(b1-4)[Fuc(a1-3)]GlcNAc
In short: as §1

[7] = molecular target: Gal(a1-3)Gal(b1-4)[Fuc(a1-3)]GlcNAc(b1-2)Man(a1-3)[Gal(a1-3)Gal(b1-4)[Fuc(a1-3)]GlcNAc(b1-2)Man(a1-6)]Man(b1-4)GlcNAc(b1-4)GlcNAc
In short: as §1

[8] = molecular target: Gal(a1-3)GalNAc
In short: as §1

[9] = molecular target: Gal(a1-3)[Gal(a1-4)]Gal(b1-4)GlcNAc
In short: as §1

[10] = molecular target: Gal(a1-4)Gal(b1-3)GlcNAc(b1-2)Man(a1-3)[Gal(a1-4)Gal(b1-3)GlcNAc(b1-2)Man(a1-6)]Man(b1-4)GlcNAc(b1-4)GlcNAc
In short: as §1

[11] = molecular target: Gal(a1-4)Gal(b1-4)Glc
In short: as §1

[12] = molecular target: Gal(a1-4)Gal(b1-4)GlcNAc
In short: as §1

[13] = molecular target: Gal(a1-4)Gal(b1-4)GlcNAc(b1-2)Man(a1-3)[Gal(a1-4)Gal(b1-4)GlcNAc(b1-2)Man(a1-6)]Man(b1-4)GlcNAc(b1-4)GlcNAc
In short: as §1

[14] = molecular target: Gal(a1-4)Gal(b1-4)GlcNAc(b1-3)Gal(b1-4)Glc
In short: as §1

[15] = molecular target: Gal(a1-4)GlcNAc
In short: as §1

[16] = molecular target: Gal(a1-6)Glc
In short: as §1

[17] = molecular target: Gal(b1-2)Gal
In short: as §1

[18] = molecular target: Gal(b1-3)Gal
In short: as §1

[19] = molecular target: Gal(b1-3)Gal(b1-4)GlcNAc
In short: as §1

[20] = molecular target: Gal(b1-3)GalNAc
In short: as §1

[21] = molecular target: Gal(b1-3)GalNAc(a1-3)[Fuc(a1-2)]Gal(b1-4)Glc
In short: as §1

[22] = molecular target: Gal(b1-3)GalNAc(a1-3)[Fuc(a1-2)]Gal(b1-4)GlcNAc
In short: as §1

[23] = molecular target: Gal(b1-3)GalNAc(b1-3)Gal
In short: as §1

[24] = molecular target: Gal(b1-3)GalNAc(b1-3)Gal(a1-4)Gal(b1-4)Glc
In short: as §1

[25] = molecular target: Gal(b1-3)GalNAc(b1-4)Gal(b1-4)Glc
In short: as §1

[26] = molecular target: Gal(b1-3)GalNAc(b1-4)[Neu5Ac(a2-3)]Gal(b1-4)Glc
In short: as §1

[27] = molecular target: Gal(b1-3)GlcNAc
In short: as §1

[28] = molecular target: Gal(b1-3)GlcNAc(a1-3)Gal(b1-4)GlcNAc
In short: as §1

[29] = molecular target: Gal(b1-3)GlcNAc(a1-6)Gal(b1-4)GlcNAc
In short: as §1

[30] = molecular target: Gal(b1-3)GlcNAc(b1-2)Man
In short: as §1

[31] = molecular target: Gal(b1-3)GlcNAc(b1-2)Man(a1-3)[Gal(b1-3)GlcNAc(b1-2)Man(a1-6)]Man(b1-4)GlcNAc(b1-4)GlcNAc
In short: as §1

[32] = molecular target: Gal(b1-3)GlcNAc(b1-2)Man(a1-3)[Gal(b1-3)GlcNAc(b1-2)Man(a1-6)]Man(b1-4)GlcNAc(b1-4)[Fuc(a1-6)]GlcNAc
In short: as §1

[33] = molecular target: Gal(b1-3)GlcNAc(b1-2)Man(a1-3)[GlcNAc(b1-4)][Gal(b1-3)GlcNAc(b1-2)Man(a1-6)]Man(b1-4)GlcNAc(b1-4)GlcNAc
In short: as §1

[34] = molecular target: Gal(b1-3)GlcNAc(b1-2)[Gal(b1-3)GlcNAc(b1-6)]Man(a1-6)[Gal(b1-3)GlcNAc(b1-2)Man(a1-3)]Man(b1-4)GlcNAc(b1-4)GlcNAc
In short: as §1

[35] = molecular target: Gal(b1-3)GlcNAc(b1-3)Gal(b1-3)GlcNAc
In short: as §1

[36] = molecular target: Gal(b1-3)GlcNAc(b1-3)Gal(b1-4)Glc
In short: as §1

[37] = molecular target: Gal(b1-3)GlcNAc(b1-3)Gal(b1-4)GlcNAc
In short: as §1

[38] = molecular target: Gal(b1-3)GlcNAc(b1-3)Gal(b1-4)GlcNAc(b1-2)Man(a1-3)[Gal(b1-3)GlcNAc(b1-3)Gal(b1-4)GlcNAc(b1-2)Man(a1-6)]Man(b1-4)GlcNAc(b1-4)GlcNAc
In short: as §1

[39] = molecular target: Gal(b1-3)GlcNAc(b1-3)Gal(b1-4)GlcNAc(b1-2)[Gal(b1-3)GlcNAc(b1-3)Gal(b1-4)GlcNAc(b1-6)]Man(a1-6)[Gal(b1-3)GlcNAc(b1-3)Gal(b1-4)GlcNAc(b1-2)Man(a1-3)]Man(b1-4)GlcNAc(b1-4)[Fuc(a1-6)]GlcNAc
In short: as §1

[40] = molecular target: Gal(b1-3)GlcNAc(b1-3)Gal(b1-4)GlcNAc(b1-3)Gal(b1-4)GlcNAc(b1-2)[Gal(b1-3)GlcNAc(b1-3)Gal(b1-4)GlcNAc(b1-3)Gal(b1-4)GlcNAc(b1-6)]Man(a1-6)[Gal(b1-3)GlcNAc(b1-3)Gal(b1-4)GlcNAc(b1-3)Gal(b1-4)GlcNAc(b1-2)Man(a1-3)]Man(b1-4)GlcNAc(b1-4)[Fuc(a1-6)]GlcNAc
In short: as §1

[41] = molecular target: Gal(b1-3)GlcNAc(b1-3)Gal(b1-4)GlcNAc(b1-6)[Gal(b1-3)GlcNAc(b1-3)]Gal(b1-4)Glc
In short: as §1

[42] = molecular target: Gal(b1-3)GlcNAc(b1-3)Gal(b1-4)[Fuc(a1-3)]GlcNAc
In short: as §1

[43] = molecular target: Gal(b1-3)GlcNAc(b1-3)Gal(b1-4)[Fuc(a1-3)]GlcNAc(b1-6)[Gal(b1-3)GlcNAc(b1-3)]Gal(b1-4)Glc
In short: as §1

[44] = molecular target: Gal(b1-3)GlcNAc(b1-3)GalNAc
In short: as §1

[45] = molecular target: Gal(b1-3)GlcNAc(b1-6)Gal(b1-4)GlcNAc
In short: as §1

B1: BC2LB (Burholderia cenocepacia), B4EH85_BURCJ (protein)
chain: MGSSHHHHHHSSGENLYFQGHMSQPFTHDDLYALLQLAGNDATAVQANGDQAVLDRMRQFMTAQLVEKLPQYDVFVDIATIPYSFDVGSWQNKVKTDAAGEVVACTVTWAGAPGVLPGAAAKFGVGAVVNYFSKATPH
[1]
  glycan array binding signal (z-score): -0.309
[2]
  glycan array binding signal (z-score): 0.156
[3]
  glycan array binding signal (z-score): -0.185
[4]
  glycan array binding signal (z-score): -0.291
[5]
  glycan array binding signal (z-score): -0.168
[6]
  glycan array binding signal (z-score): -0.287
[7]
  glycan array binding signal (z-score): 0.053
[8]
  glycan array binding signal (z-score): -0.23
[9]
  glycan array binding signal (z-score): -0.338
[10]
  glycan array binding signal (z-score): -0.211
[11]
  glycan array binding signal (z-score): 0.199
[12]
  glycan array binding signal (z-score): -0.275
[13]
  glycan array binding signal (z-score): -0.047
[14]
  glycan array binding signal (z-score): 0.826
[15]
  glycan array binding signal (z-score): -0.101
[16]
  glycan array binding signal (z-score): -0.339
[17]
  glycan array binding signal (z-score): 0.168
[18]
  glycan array binding signal (z-score): -0.185
[19]
  glycan array binding signal (z-score): -0.06
[20]
  glycan array binding signal (z-score): -0.261
[21]
  glycan array binding signal (z-score): -0.165
[22]
  glycan array binding signal (z-score): -0.262
[23]
  glycan array binding signal (z-score): -0.301
[24]
  glycan array binding signal (z-score): 0.079
[25]
  glycan array binding signal (z-score): -0.152
[26]
  glycan array binding signal (z-score): -0.226
[27]
  glycan array binding signal (z-score): -0.24
[28]
  glycan array binding signal (z-score): -0.314
[29]
  glycan array binding signal (z-score): -0.227
[30]
  glycan array binding signal (z-score): 0.003
[31]
  glycan array binding signal (z-score): -0.185
[32]
  glycan array binding signal (z-score): -0.007
[33]
  glycan array binding signal (z-score): 0.126
[34]
  glycan array binding signal (z-score): 0.077
[35]
  glycan array binding signal (z-score): -0.203
[36]
  glycan array binding signal (z-score): -0.223
[37]
  glycan array binding signal (z-score): -0.324
[38]
  glycan array binding signal (z-score): 0.26
[39]
  glycan array binding signal (z-score): -0.01
[40]
  glycan array binding signal (z-score): -0.08
[41]
  glycan array binding signal (z-score): -0.264
[42]
  glycan array binding signal (z-score): -0.255
[43]
  glycan array binding signal (z-score): -0.264
[44]
  glycan array binding signal (z-score): -0.408
[45]
  glycan array binding signal (z-score): -0.219
